Hit rate of the full screen: of about 360,000 compounds, about 17,000 (4.7%) were called active. This list was built around the results that the source calls inconclusive (neither active nor inactive); the mix of calls is not that of the screen. Rule as the data show it: active = activity change below about -50%; inconclusive = mostly about -30% to -49%; inactive = weaker than that.
Assay: qHTS for Inhibitors of Inflammasome Signaling: IL-1-beta AlphaLISA Primary Screen
Details: THP-1 LPS/ATP IL-1B secretion, 16 h; at 57.5 µM, stronger effect = lower value
How it was run: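 THP-1 cells pretreated 1 hr with compounds (up to 57.5 uM final), then stimulated with LPS (250 ng/mL final) plus ATP (1.25 mM final); secreted IL-1B measured by AlphaLISA after 16 hr, decreased signal indicating inhibition.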
% is scaled to controls: 0 for no effect and ±100 for the full control effect.

| Compound | activity change |
| --- | --- |
| O=C(Nc1ccc(N2CCOCC2)c(Cl)c1)c1cccc(F)c1 | active: -54.5% |
| COc1ccccc1C(CNc1ccc(S(=O)(=O)N2CCCC2)cc1[N+](=O)[O-])N(C)C (configuration not stated) | inconclusive: -30.5% |
| Cn1c(N)c(C(=O)COC(=O)c2cc(S(=O)(=O)N3CCOCC3)ccc2F)c(=O)n(C)c1=O | active: -105% |
| CCc1ccc(OCC2c3cc(OC)c(OC)cc3CCN2C(=S)NCCOC)cc1 (configuration not stated) | inconclusive: -42.8% |
| OC(c1ccc2c(c1)OCO2)c1ncc(-c2cccc(C(F)(F)F)c2)[nH]1 (configuration not stated) | inconclusive: -48.3% |
| Cc1ccccc1CN1CCC(n2nccc2NC(=O)c2ccc3c(c2)OCO3)CC1 | inconclusive: -35.2% |
| CCSCCOC(=O)C1=C(C)NC2=C(C(=O)CCC2)C1c1coc2ccccc2c1=O (configuration not stated) | inconclusive: -30.5% |
| CCc1ccccc1NC(=O)CN(C)C(=O)CSc1nnc(Nc2ccc(C)cc2)s1 | inconclusive: -38.9% |
| CC(=O)Nc1ccc(N(C(=O)Cc2c[nH]c3ccccc23)C(C(=O)NC2CCCCC2)c2ccco2)cc1 (configuration not stated) | inconclusive: -43.2% |
| COc1ccc(NC(=O)CCCN2C(=O)C(c3ccccc3)Oc3cccnc32)cc1 (configuration not stated) | inconclusive: -35.7% |
| CCCCc1c(-c2ccc(F)cc2F)ncn1CCc1ccccc1OC | active: -70.9% |
| C(=N\Nc1nc(N2CCCCC2)nc(N2CCCCC2)n1)/c1c[nH]c2ccccc12 | active: -59.8% |
| Cc1ccc(C(NC(=O)NCCCN2CCOCC2)=C(Cl)Cl)cc1F | active: -51.2% |
| Cc1c(Cl)cccc1NC(=O)CCCn1nc([N+](=O)[O-])cc1C | inconclusive: -37.1% |
| N/C(=N\OC(=O)CSc1ccccc1)c1ccc([N+](=O)[O-])cc1 | inactive: -13% |
| CC1CN(c2nc3ccccn3c(=O)c2/C=C(\C#N)C(N)=O)CC(C)O1 (configuration not stated) | active: -65.2% |
| COc1ccccc1NC(=O)c1c(Nc2ccccc2C)sc(C(=O)Nc2cccc(Cl)c2)c1N | inconclusive: -35.2% |
| COc1cc(C(=O)NCc2nnc(SCC(=O)N3CCc4ccccc43)o2)cc(OC)c1OC | inactive: -1.04% |
| CSc1ncc(-c2ccc(Cl)cc2)[nH]1 | inactive: -8.77% |
| COCCOC(=O)c1c(C)oc2ccc(OCc3cc(C(=O)OC)oc3C)cc12 | inconclusive: -46.2% |
| CCN(CC)c1ccc(/C=N/NC(=S)NCc2ccc(OC)cc2)cc1 | inconclusive: -37.5% |
| COc1ccccc1CNC(=O)C1CCN(C(=O)c2sccc2-n2cccc2)CC1 | inconclusive: -33% |

| Compound | activity change |
| --- | --- |
| Cc1cccc(NC(=O)C2CCCC2)c1 | inactive: 3.62% |
| O=C(Nc1ccc([N+](=O)[O-])cc1)c1cn(-c2ccccc2)nc1-c1cc2ccccc2o1 | inactive: 4.98% |
| CCn1cc(C(=O)N2CCCC2)c(=O)c2cc(S(=O)(=O)N(C)C)ccc21 | inconclusive: -31.8% |
| CCN(CC)S(=O)(=O)c1cccc(NC(=O)CC2CCCC2)c1 | inactive: -12.8% |
| Cc1ccc(Nc2nc(N)nc(CN3CCN(Cc4ccc5c(c4)OCO5)CC3)n2)cc1C | active: -73.7% |
| CC1CCCN(C(=O)COc2ccc(-c3ccccc3)cc2)C1 (configuration not stated) | inconclusive: -39.7% |
| CCc1ccc2[nH]c(=O)c(CN(Cc3ccc(OC)cc3)Cc3nnnn3CCOC)cc2c1 | inconclusive: -31.7% |
| Cc1cc(NC(=O)CCN2CCCCC2)ccc1Br | inconclusive: -37.5% |
| C[C@H](NC(=O)c1nc[nH]c1C(=O)N[C@@H](CCCCNC(=O)OC(C)(C)C)C(=O)OC(C)(C)C)c1ccccc1 | active: -52.3% |
| CC(=O)CCC1CC(c2ccc(Cl)cc2)=NO1 (configuration not stated) | inactive: 16.1% |
| CCN(CC)CCNC(=O)c1cn(CC)c2ccc(S(=O)(=O)N(C)C3CCCCC3)cc2c1=O | inconclusive: -36.2% |
| O=C(c1ccc(S(=O)(=O)Nc2cccc(C(F)(F)F)c2)cc1)N1CCN(c2ccccc2O)CC1 | inconclusive: -30.1% |
| Cc1nn(CCS(=O)(=O)c2ccc(Cl)cc2)c(C)c1Br | inactive: -1.66% |
| Cc1ccc(-c2cc(C(=O)NC3CCCC3)no2)cc1 | inconclusive: -31.1% |
| O=C(c1cc(C2CC2)nn1-c1ccccc1)N1CCN(S(=O)(=O)c2cccc(F)c2)CC1 | inconclusive: -45.2% |
| COc1cc(/C=N/OCC(=O)NC2CCCCC2)ccc1OCc1ccccc1 | inconclusive: -30.6% |
| Cc1ccnc(NS(=O)(=O)c2ccc(NC(=O)C3C4C=CC(C4)C3C(=O)O)cc2)n1 (configuration not stated) | inactive: 11.7% |
| Cc1nc2ccccn2c1-c1csc(NCc2ccco2)n1 | inconclusive: -34.9% |
| N=c1c2ccccc2nnn1-c1ccccc1[N+](=O)[O-] | inactive: 0% |
| Cc1ccc(O)c(C(=O)C=Cc2ccccc2)c1 | active: -101% |
| CC1(c2nnnn2Cc2ccccc2)CCC(=O)N1Cc1cccc(C(F)(F)F)c1 (configuration not stated) | inactive: 1.78% |
| O=C1Nc2ccccc2OC1CC(=O)N1CCN(c2cccc(C(F)(F)F)c2)CC1 (configuration not stated) | inconclusive: -43% |

| Compound | activity change |
| --- | --- |
| CCn1ncc(Br)c1C(=O)Nc1ccc2c(c1)OCCO2 | inactive: -12.3% |
| COc1ccc(OC)c(-c2cc(C(=O)Nc3c(C)nn(Cc4ccccc4C)c3C)no2)c1 | inconclusive: -40.7% |
| NC(=O)c1nsc(C(=O)N(c2ccc(Cl)cc2)C(C(=O)NCC2CCCO2)c2cccs2)c1N (configuration not stated) | active: -82.9% |
| Cc1nn(CCCC(=O)NCCc2ccccc2)c(=O)c2nn(-c3ccccc3)c(C)c12 | inconclusive: -36.1% |
| COc1ccc(NC(=O)CN(C)C2CCCCC2)c([N+](=O)[O-])c1 | inactive: -3.68% |
| Nc1ccc(Oc2ccc3c(c2)C(=O)NC3=O)cc1 | inactive: 0.0196% |
| Cc1cc(O)ccc1N/C=C/c1onc(C)c1[N+](=O)[O-] | inconclusive: -34% |
| COc1ccc(OC)c(N=C2C(=O)Nc3ccccc32)c1 | inactive: 9.21% |
| CC1=CC(=O)C=C(C)C1=NOc1ccccc1[N+](=O)[O-] | inconclusive: -35.5% |
| CN(C)C(=O)N1CCc2ccc([N+](=O)[O-])cc21 | inactive: -2.13% |
| CS(=O)(=O)N1CCC(C(=O)Nc2ccc(Oc3ccccc3)cc2)CC1 | inactive: -5.86% |
| COc1ccc(NC(=O)COC(=O)c2c3c(nc4ccccc24)CCCC3)cc1 | inconclusive: -36.5% |
| COc1ccccc1CN(C)C(=O)c1cccc(S(=O)(=O)N2CCc3ccccc3C2)c1 | inconclusive: -41.5% |
| Nc1nnnn1/N=C/C(Br)=C/c1ccccc1 | active: -93% |
| CCN(CC)S(=O)(=O)c1ccc(Oc2ccc(S(=O)(=O)N(CC)CC)cc2)cc1 | inconclusive: -36.6% |
| O=C(/C=C/c1ccccc1)NC(NC(=S)Nc1cccc(Cl)c1)C(Cl)(Cl)Cl (configuration not stated) | inconclusive: -33.8% |
| CC1CC1C(=O)Nc1ccc(-c2ccccc2)cc1 (configuration not stated) | inactive: -14.2% |
| CCC(=O)Nc1ccc(NC(=O)CN2CCCC(C)C2)c(Cl)c1 (configuration not stated) | inconclusive: -49.9% |
| O=C(O)CSc1nc2ccccc2n1-c1ccccc1 | active: -81.3% |
| CCCc1nc2ccccc2c(C(=O)OC(C)C(=O)NCc2ccc3c(c2)OCO3)c1CC (configuration not stated) | inconclusive: -31.6% |
| Cc1ccc(S(=O)(=O)Nc2cc(C(=O)NCCN(C)C)ccc2N2CCCCC2)cc1 | inconclusive: -32.3% |
| CCc1cccc(CC)c1NC(=O)CN1C2CCCC1CC(NC(=O)Nc1cccc(OC)c1)C2 (configuration not stated) | inconclusive: -43.2% |

| Compound | activity change |
| --- | --- |
| Cc1noc2ncnc(Oc3ccc4ccccc4c3)c12 | inconclusive: -37.4% |
| CS(=O)(=O)/C(C#N)=C/c1cccn1S(=O)(=O)c1cccc2ccccc12 | inactive: 28.8% |
| O=C(O)c1ccc(-c2ccc(/C=c3/sc4nc5ccccc5n4c3=O)o2)cc1Cl | inactive: 11.9% |
| CCOC(=O)C1(CCOc2ccccc2)CCN(Cc2ccc(OC)c(COC)c2)CC1 | active: -52% |
| Cc1nc2c3cc(F)ccc3n(CCN3CCCCC3)c2s1 | inconclusive: -35.9% |
| Cc1cccc(C(=O)OC(C)C(=O)N2CCc3ccccc3C2)c1C (configuration not stated) | inactive: -8.2% |
| Cc1ccc(-n2nnnc2C(Cl)c2nnnn2-c2ccc(C)cc2)cc1 | active: -59.1% |
| Cc1c(C)n(CC(O)CNc2ccccc2)c2ccccc12 (configuration not stated) | inconclusive: -34.8% |
| COc1ccc(C(=O)/C=C2\NCCc3cc(OC)c(OC)cc32)cc1OC | inconclusive: -33.5% |
| O=C(NCCCn1ccnc1)/C(=C/c1ccco1)NC(=O)c1ccco1 | inactive: 22.9% |
| C=C1C(=O)C=C[C@]2(C)C[C@@H]3OC(=O)[C@](C)(O)[C@H]3C[C@@H]12 | active: -110% |
| CCn1cc(CCCC(=O)NCc2cccc(OC)c2)c2ccccc21 | inconclusive: -32.4% |
| C/C(=N\NC(=O)c1ccc(CSc2nc(C)cc(C)n2)cc1)c1ccco1 | inactive: -2.2% |
| Cc1ccc(S(=O)(=O)NC(=NC2CCCCC2)c2ccc(Cl)cc2)cc1 | inactive: 0.158% |
| CCC(C)Nc1nc(-c2cccc(OC)c2O)nc2ccccc12 (configuration not stated) | active: -73.7% |
| CCOc1ccc(C(=O)N2CCc3cc(OC)c(OC)cc3C2)cc1OCC | inactive: -3.29% |
| NNC(=O)c1cnn(-c2ccccc2)c1-n1cccc1 | inactive: 11.8% |
| COC(=O)C1=C(C(=O)c2ccc(C)cc2)C(c2ccc(O)c(OC)c2)n2nnnc2N1 (configuration not stated) | inactive: 8.04% |
| Cc1cccn2c(=O)c(/C=C(\C#N)C(=O)NCc3ccco3)c(N3CCCCC3)nc12 | inactive: -13.2% |
| COc1cc(OC)nc(Nc2nc(C(N)CCc3ccccc3)cs2)n1 (configuration not stated) | inconclusive: -47.3% |
| CN(Cc1cn[nH]c1-c1cc2ccccc2o1)CC1CCOCC1 | inactive: -13.7% |

Source: PubChem BioAssay AID743279 (National Center for Advancing Translational Sciences (NCATS), 2014)
